# Assay results as given in PubChem BioAssay (NCATS).
# “And” between values parts separate entries of the source, which are not always exact repeats. Identical values can stand only once. The inconclusive results got no clear call from the source; some entries with a clear call stand among them for comparison. For part of these data: Potencies beside an inconclusive call are fits to weak or partial responses and may not hold up. The source made the active and inactive calls. Calls follow the shape of the dose curve; as a rule, active = well fitted curve in the direction sought with a large enough effect; inconclusive = small, poorly fitted or top-dose-only effect, or another doubt; inactive = no such curve, though single readings can be large; an effect the other way counts as inactive or inconclusive.
# Legend:
# [1] = Primary qHTS for inhibitors of nuclear receptor binding SET domain protein 2 (NSD2) in an isogenic RCH-ACV NSD2 p.E1099K mutant (9B) (AID 1645876); also: nearly all actives have a fitted effect of over 70% in size
# [2] = Primary qHTS for inhibitors of nuclear receptor binding SET domain protein 2 (NSD2) in an RCH-ACV wild type WT cells (2C) (AID 1645877); conditions: activity change, negative = cell killing: at 44.9 µM (top of the series); also: nearly all actives have a fitted effect of over 70% in size
# CRL-7250 = normal cell line; test: Cytotoxic Profiling of Annotated Libraries Using Quantitative High-Throughput Screening (AID 1296008); conditions: Five cell lines viability, CellTiter-Glo ATP luminescence, 48-72 h; max response: stronger effect = lower value; also: nearly all actives have a fitted effect of over 60% in size; as to max response: % is scaled to controls: 0 for no effect and ±100 for the full control effect
# In short: (§1)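 Cells exposed to compounds for 48 or 72 hr at 37 degrees Celsius. Viability read as ATP-coupled luminescence with CellTiter-Glo after 10 min at room temperature.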
# HEK293 = test: as above; conditions: Five cell lines viability, CellTiter-Glo ATP luminescence, 48-72 h; max response: stronger effect = lower value
# In short: as §1
# HaCat = test: as above; conditions: Five cell lines viability, CellTiter-Glo ATP luminescence, 48-72 h; max response: stronger effect = lower value
# In short: as §1
# NIH3T3 = test: as above; conditions: Five cell lines viability, CellTiter-Glo ATP luminescence, 48-72 h; max response: stronger effect = lower value
# In short: as §1
# CAOV3 = test: Primary qHTS to identify gynecologic anti-cancer compounds using libraries of approved drugs and bioactive compounds (AID 1345084); conditions: Gynecologic cancer cell panel viability, ATPlite luminescence, 48 h; series mostly up to 57.5 µM; also: nearly all actives have a fitted effect of over 55% in size; as to activity change, negative = cytotoxicity: % is scaled to controls: 0 for no effect and ±100 for the full control effect
# In short: (§2)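 48 h compound exposure at 37 C, 5% CO2; five-point qHTS. ATPlite luminescence readout of cell ATP.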
# PA-1 = test: as above; conditions: Gynecologic cancer cell panel viability, ATPlite luminescence, 48 h; series mostly up to 57.5 µM
# In short: as §2
# C33A = test: as above; conditions: Gynecologic cancer cell panel viability, ATPlite luminescence, 48 h; series mostly up to 57.5 µM
# In short: as §2
# CASKI = test: as above; conditions: Gynecologic cancer cell panel viability, ATPlite luminescence, 48 h; activity change, negative = cytotoxicity: at 57.5 µM (top of the series)
# In short: as §2
# Es-2 = test: as above; conditions: Gynecologic cancer cell panel viability, ATPlite luminescence, 48 h; series mostly up to 57.5 µM
# In short: as §2
# Hek293T = test: as above; conditions: Gynecologic cancer cell panel viability, ATPlite luminescence, 48 h, control line for the selectivity index; series mostly up to 57.5 µM
# In short: as §2
# OV90 = test: as above; conditions: Gynecologic cancer cell panel viability, ATPlite luminescence, 48 h; series mostly up to 57.5 µM
# In short: as §2
# SKOV3 = test: as above; conditions: Gynecologic cancer cell panel viability, ATPlite luminescence, 48 h; series mostly up to 57.5 µM
# In short: as §2
# Tov-21-G = test: as above; conditions: Gynecologic cancer cell panel viability, ATPlite luminescence, 48 h; activity change, negative = cytotoxicity: at 57.5 µM (top of the series)
# In short: as §2
# Tov112D = test: as above; conditions: Gynecologic cancer cell panel viability, ATPlite luminescence, 48 h; activity change, negative = cytotoxicity: at 57.5 µM (top of the series)
# In short: as §2
# HeLa = test: as above; conditions: Gynecologic cancer cell panel viability, ATPlite luminescence, 48 h; series mostly up to 57.5 µM
# In short: as §2
# JEG-3 = test: as above; conditions: Gynecologic cancer cell panel viability, ATPlite luminescence, 48 h; series mostly up to 57.5 µM
# In short: as §2
# [3] = P-glycoprotein substrates identified in KB-8-5-11 adenocarcinoma cell line, qHTS therapeutic library screen (AID 1346987); also: nearly all actives have a fitted effect of over 65% in size; as to activity change, negative = cytotoxicity: % is scaled to controls: 0 for no effect and ±100 for the full control effect
# In short: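 P-gp-mediated resistance screen: KB-8-5-11 cells treated 72 h with compounds in dose-response. CellTiter-Glo viability.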
# Potency is read from the fitted curve at half-maximal effect; tags tell the direction and shape of the fitted curve.
smiles,measurement,setting,value
C/C(=C(/OCCOc1ccc(Cl)cc1)c1ccc(Cl)cc1Cl)n1ccnc1,Potency,[1],"inconclusive: 29.9 µM [inhibitor, single point]"
same,Potency,[2],"inconclusive: 21.1 µM [inhibitor, single point]"
same,Potency,CRL-7250,"inconclusive: 23.7 µM [inhibitor, single point]"
same,Potency,HEK293,"inconclusive: 26.6 µM [inhibitor, single point]"
same,Potency,HaCat,"inconclusive: 33.5 µM [inhibitor, partial curve, poor fit]"
same,max response,NIH3T3,inactive: -25.5%
same,Potency,CAOV3,"inconclusive: 7.08 µM [cytotoxic, single point]"
same,Potency,PA-1,inactive
CO[C@H]1/C=C/C=C/C=C/C[C@H](OC(=O)[C@@H](C)NC(=O)C2CCCCC2)[C@H](C)[C@@H](O)/C(C)=C/CCc2cc(O)cc(c2)NC(=O)C1,Potency,CRL-7250,active: 0.306 µM
same,Potency,HEK293,active: 0.343 µM
same,Potency,HaCat,active: 1.09 µM
same,Potency,NIH3T3,"inconclusive: 0.968 µM [inhibitor, full curve]"
same,Potency,C33A,"inconclusive: 1.12 µM [cytotoxic, full curve]"
same,Potency,CASKI,"inconclusive: 5.01 µM [cytotoxic, partial curve]"
same,Potency,Es-2,active: 1.78 µM
same,Potency,Hek293T,active: 0.708 µM
same,Potency,OV90,"inconclusive: 3.98 µM [cytotoxic, partial curve, poor fit]"
same,Potency,PA-1,active: 0.355 µM
same,Potency,SKOV3,active: 3.16 µM
same,Potency,Tov-21-G,active: 2.82 µM
same,Potency,Tov112D,"inconclusive: 2.82 µM [cytotoxic, partial curve]"
CC(O)c1cc(C(=O)N[C@@H](C)Cn2ccc(-c3ccc(C#N)c(Cl)c3)n2)n[nH]1 (stereo partly specified),Potency,[1],"inconclusive: 20.5 µM [inhibitor, partial curve] and inconclusive: 26.3 µM [inhibitor, single point]"
same,Potency,[2],"inconclusive: 25.8 µM [inhibitor, single point] and active: 20.9 µM"
same,Potency,CRL-7250,"inconclusive: 20.6 µM [inhibitor, single point]"
same,Potency,HEK293,active: 18.4 µM
same,Potency,HaCat,"inconclusive: 29.1 µM [inhibitor, single point]"
same,Potency,NIH3T3,"inconclusive: 23.1 µM [inhibitor, single point]"
same,Potency,C33A,"inconclusive: 39.8 µM [cytotoxic, single point]"
same,Potency,CASKI,"inconclusive: 39.8 µM [cytotoxic, single point]"
same,Potency,Es-2,"inconclusive: 35.5 µM [cytotoxic, partial curve, poor fit]"
same,Potency,HeLa,"inconclusive: 35.5 µM [cytotoxic, single point]"
same,Potency,Hek293T,"inconclusive: 28.2 µM [cytotoxic, single point]"
same,Potency,JEG-3,"inconclusive: 35.5 µM [cytotoxic, single point]"
same,Potency,PA-1,"inconclusive: 39.8 µM [cytotoxic, single point]"
same,Potency,SKOV3,"inconclusive: 39.8 µM [cytotoxic, single point]"
same,Potency,Tov-21-G,"inconclusive: 25.1 µM [cytotoxic, single point]"
same,Potency,Tov112D,"inconclusive: 39.8 µM [cytotoxic, single point]"
CCCCN1CCCC1C(=O)Nc1c(C)cc(C)cc1C (stereo unspecified),Potency,[1],"inconclusive: 29.9 µM [inhibitor, single point]"
same,Potency,[2],"inconclusive: 23.7 µM [inhibitor, single point]"
same,Potency,CRL-7250,"inconclusive: 33.5 µM [inhibitor, partial curve, poor fit]"
same,Potency,HEK293,"inconclusive: 18.8 µM [inhibitor, single point]"
same,Potency,HaCat,"inconclusive: 26.6 µM [inhibitor, single point]"
same,Potency,CASKI,inactive
same,Potency,JEG-3,inactive
same,Potency,OV90,"inconclusive: 22.4 µM [cytotoxic, partial curve, poor fit]"
C=C1CC[C@@H]2[C@](C)(CO)[C@H](O)CC[C@@]2(C)[C@@H]1C/C=C1/C(=O)OCC1OC(=O)/C(=C/CO)C(O)C[C@@H]1C(=C)CC[C@@H]2[C@](C)(CO)[C@H](O)CC[C@]21C (stereo partly specified),Potency,[1],"inconclusive: 9.63 µM [inhibitor, single point]"
same,Potency,[2],"inconclusive: 9.63 µM [inhibitor, single point]"
same,Potency,CRL-7250,"inconclusive: 6.85 µM [inhibitor, single point]"
same,Potency,HEK293,"inconclusive: 9.68 µM [inhibitor, single point]"
same,outcome,HaCat,inactive
same,Potency,NIH3T3,"inconclusive: 6.11 µM [inhibitor, single point]"
same,Potency,SKOV3,"inconclusive: 12.6 µM [cytotoxic, single point]"
same,Potency,Tov-21-G,inactive
CC(NC(=O)Cc1cc(F)cc(F)c1)C(=O)NC1C(=O)N(C)c2ccccc2-c2ccccc21 (stereo unspecified),Potency,CRL-7250,"inconclusive: 11.6 µM [inhibitor, partial curve, poor fit]"
same,Potency,HEK293,"inconclusive: 20.6 µM [inhibitor, single point]"
same,Potency,HaCat,"inconclusive: 18.4 µM [inhibitor, partial curve, poor fit]"
same,Potency,NIH3T3,"inconclusive: 23.1 µM [inhibitor, single point]"
same,Potency,CAOV3,"inconclusive: 35.5 µM [cytotoxic, partial curve, poor fit]"
same,Potency,JEG-3,inactive
same,Potency,PA-1,"inconclusive: 20 µM [cytotoxic, partial curve]"
same,Potency,SKOV3,"inconclusive: 17.8 µM [cytotoxic, partial curve]"
O=C(c1c(F)ccc(NS(=O)(=O)N2CC[C@@H](F)C2)c1F)c1c[nH]c2ncc(-c3cnc(C4CC4)nc3)cc12,Potency,CRL-7250,active: 23.1 µM
same,Potency,HEK293,"inconclusive: 18.4 µM [inhibitor, single point]"
same,Potency,HaCat,"inconclusive: 29.1 µM [inhibitor, single point]"
same,Potency,NIH3T3,"inconclusive: 16.4 µM [inhibitor, partial curve]"
same,Potency,CAOV3,"inconclusive: 39.8 µM [cytotoxic, single point]"
same,Potency,Es-2,"inconclusive: 2.51 µM [cytotoxic, full curve, poor fit]"
same,Potency,JEG-3,inactive
same,Potency,OV90,"inconclusive: 1.41 µM [cytotoxic, full curve, poor fit]"
same,Potency,SKOV3,"inconclusive: 7.94 µM [cytotoxic, partial curve, poor fit]"
COc1cc(Nc2nc3c(s2)CCCC3c2ccc(F)cc2)ccc1-n1cnc(C)c1 (stereo unspecified),Potency,[2],active: 10.3 µM
same,Potency,CRL-7250,active: 14.6 µM
same,Potency,HEK293,active: 11.6 µM
same,Potency,HaCat,"inconclusive: 29.1 µM [inhibitor, single point]"
same,Potency,NIH3T3,"inconclusive: 20.6 µM [inhibitor, single point]"
same,Potency,OV90,"inconclusive: 39.8 µM [cytotoxic, single point]"
same,Potency,SKOV3,"inconclusive: 3.16 µM [cytotoxic, single point]"
C=C(C(=O)O)[C@@H]1CC=C(CCC(C)=O)[C@@H](C)CC1,Potency,[3],inactive
same,Potency,[1],"inconclusive: 5.78 µM [inhibitor, partial curve, poor fit]"
same,Potency,[2],"inconclusive: 18.3 µM [inhibitor, single point]"
same,max response,CRL-7250,inactive: -0.888%
same,Potency,HEK293,"inconclusive: 29.1 µM [inhibitor, single point]"
same,max response,HaCat,inactive: -4.33%
same,max response,NIH3T3,inactive: -3.55%
Cn1ncnc1[C@H]1c2n[nH]c(=O)c3cc(F)cc(c23)N[C@@H]1c1ccc(F)cc1,Potency,CRL-7250,"inconclusive: 0.632 µM [inhibitor, full curve]"
same,Potency,HEK293,"inconclusive: 0.0252 µM [inhibitor, full curve]"
same,Potency,HaCat,active: 3.17 µM
same,Potency,NIH3T3,"inconclusive: 2.52 µM [inhibitor, partial curve]"
same,Potency,CASKI,"inconclusive: 20 µM [cytotoxic, single point]"
same,Potency,Es-2,"inconclusive: 3.55 µM [cytotoxic, partial curve]"
same,Potency,JEG-3,"inconclusive: 12.6 µM [cytotoxic, single point]"
same,Potency,Tov112D,"inconclusive: 3.16 µM [cytotoxic, full curve]"
Cc1cn(CCN2CCN(c3ccccc3-c3cc(C#N)cc(C(=O)NCCCN4CCCC4)c3)CC2)c2ccccc12,Potency,[3],active: 18.4 µM
same,Potency,CRL-7250,"inconclusive: 29.1 µM [inhibitor, single point] and inconclusive: 37.1 µM [inhibitor, single point]"
same,Potency,HEK293,"inconclusive: 23.1 µM [inhibitor, single point] and active: 14.8 µM"
same,Potency,HaCat,"inconclusive: 18.4 µM [inhibitor, single point] and inconclusive: 33.1 µM [inhibitor, single point]"
same,Potency,NIH3T3,active: 16.6 µM
same,Potency,CAOV3,"inconclusive: 39.8 µM [cytotoxic, single point]"
same,Potency,OV90,"inconclusive: 39.8 µM [cytotoxic, single point]"
C[C@H]1[C@@H](OC(=O)CCC(=O)O)O[C@@H]2O[C@@]3(C)CC[C@@H]4[C@H](C)CC[C@@H]1[C@@]24OO3,Potency,[3],active: 16.6 µM
same,Potency,CRL-7250,"inconclusive: 11.8 µM [inhibitor, full curve]"
same,Potency,HEK293,active: 2.35 µM
same,Potency,HaCat,"inconclusive: 6.51 µM [inhibitor, full curve]"
same,Potency,C33A,"inconclusive: 6.31 µM [cytotoxic, full curve]"
same,Potency,Es-2,"inconclusive: 31.6 µM [cytotoxic, single point]"
same,Potency,HeLa,"inconclusive: 10 µM [cytotoxic, partial curve]"
same,Potency,Hek293T,"inconclusive: 7.94 µM [cytotoxic, full curve]"
same,Potency,JEG-3,"inconclusive: 20 µM [rising, partial curve]"
same,Potency,PA-1,"inconclusive: 28.2 µM [cytotoxic, single point]"
same,Potency,Tov-21-G,"inconclusive: 25.1 µM [cytotoxic, single point]"
same,Potency,Tov112D,"inconclusive: 10 µM [cytotoxic, partial curve, poor fit]"
Cn1ccc(NC(=O)c2cc(Oc3ccc(C(=O)N4CCC4)c(F)c3)c3c(c2)OC(C)(C)C3)n1,Potency,[1],inactive
same,max response,CRL-7250,inactive: 3.93%
same,Potency,HEK293,"inconclusive: 29.1 µM [inhibitor, single point]"
same,Potency,HaCat,"inconclusive: 0.164 µM [inhibitor, full curve, poor fit]"
same,max response,NIH3T3,inactive: 4.11%
OC(CNCCc1c[nH]c2ccccc12)Cn1c2ccccc2c2ccccc21 (stereo unspecified),Potency,[1],active: 5.15 µM
same,Potency,[2],active: 4.59 µM
same,Potency,CRL-7250,"inconclusive: 23.1 µM [inhibitor, single point]"
same,Potency,HEK293,"inconclusive: 16.4 µM [inhibitor, single point]"
same,Potency,HaCat,"inconclusive: 20.6 µM [inhibitor, single point]"
same,Potency,NIH3T3,"inconclusive: 29.1 µM [inhibitor, single point]"
same,Potency,C33A,"inconclusive: 39.8 µM [cytotoxic, single point]"
same,Potency,CAOV3,"inconclusive: 39.8 µM [cytotoxic, single point]"
same,Potency,CASKI,"inconclusive: 39.8 µM [cytotoxic, single point]"
same,Potency,SKOV3,"inconclusive: 39.8 µM [cytotoxic, single point]"
